Data as given in PubChem BioAssay AID624417 (National Center for Advancing Translational Sciences (NCATS), 2012).
Several values for one entry are separate records, joined by “and”; a condition that tells them apart may be missing. Equal values may be shown once. In all, about 410,000 compounds went through this assay and about 6,400 (1.6%) were called active. The inconclusive results got no clear call from the source; some entries with a clear call stand among them for comparison. The call rests on the fitted dose curve; in most records, active means well fitted inhibition curve with a large enough effect; inconclusive means small, poorly fitted or top-dose-only effect; inactive means no such curve, though single readings can be large or run the other way. Potencies of inconclusive entries are doubtful fits and often do not repeat.
Further: nearly all actives have a fitted effect of over 55% in size.
Potency means the concentration at half of the fitted maximal effect; tags describe the fitted curve by direction and shape.

The compounds below were run against Glucagon-like peptide 1 receptor (Homo sapiens) (UniProt P43220) (assay: qHTS of GLP-1 Receptor Inverse Agonists (Inhibition Mode)). Settings: HEK293 GLP-1R CRE-luciferase, luminescence, 24 h, GLP-1R form is constitutively active; series mostly up to 38.3 µM.
Sequence of UniProt P43220 (P43220 whole entry, looked up): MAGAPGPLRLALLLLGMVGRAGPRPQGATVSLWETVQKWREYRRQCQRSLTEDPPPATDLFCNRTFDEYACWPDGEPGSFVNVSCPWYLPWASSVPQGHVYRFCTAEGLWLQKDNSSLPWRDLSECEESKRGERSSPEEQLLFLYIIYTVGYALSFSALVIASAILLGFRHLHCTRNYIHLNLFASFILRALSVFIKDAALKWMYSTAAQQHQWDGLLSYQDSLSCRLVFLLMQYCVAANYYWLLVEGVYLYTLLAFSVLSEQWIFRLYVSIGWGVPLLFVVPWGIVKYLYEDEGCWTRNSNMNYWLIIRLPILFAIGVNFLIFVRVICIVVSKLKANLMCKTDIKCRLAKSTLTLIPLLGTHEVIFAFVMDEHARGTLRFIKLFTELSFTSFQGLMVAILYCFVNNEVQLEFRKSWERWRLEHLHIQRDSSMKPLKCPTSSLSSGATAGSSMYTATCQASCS
Method in brief: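 Seeding at 200 cells/uL, 12 h culture, 24 hr compound treatment, then luciferase reagent and a luminescence read; cells are HEK293 stably expressing a constitutively active GLP-1R plus cAMP-responsive luciferase.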
For `COc1ccc(Cl)cc1C1=NOC2(CCC2)C(=O)N1Cc1cccc(C#N)c1`, the Potency was inconclusive: 28.2 µM [inhibitor, single point]. `CCc1ccc(NC(=O)CCn2nc(C)c(S(=O)(=O)N3CCCCC3)c2C)cc1` was tested, and the Potency was inconclusive: 10 µM [inhibitor, partial curve, poor fit]. `Cc1ccc(S(=O)(=O)N2CCN(C(=O)CCCOc3ccc(Cl)cc3C)CC2)cc1` was tested, and the Potency was inconclusive: 25.1 µM [inhibitor, single point]. With `O=C(N/N=C/c1ccccn1)c1cccs1` the Potency was inconclusive: 31.6 µM [inhibitor, partial curve, poor fit]. With `CCCOC(=O)CSC1=C(C#N)C(c2ccccc2Cl)CC(=O)N1` (configuration not stated) the Potency was inconclusive: 20 µM [inhibitor, single point]. In the case of `N#C/C(=C\c1cn(Cc2ccc(F)cc2)c2ccccc12)C(=O)NCc1ccco1`, the Potency is reported as “inactive”. For `CC(=O)c1cccc(NC(=O)CSc2nnc(C(C)N(C)C)n2-c2ccc(F)cc2)c1` (configuration not stated), the Potency was inconclusive: 12.6 µM [inhibitor, partial curve, poor fit]. For `O=C(Nc1nnc(SCc2ccccc2)s1)c1cc2c(s1)CCCC2`, the Potency was “inactive”. In the case of `Cc1ccccc1CN1[C@@H](Cc2ccccc2)COCCS1(=O)=O`, the Potency is reported as inconclusive: 15.8 µM [inhibitor, single point]. In the case of `CSc1ccccc1NC(=O)c1ccco1`, the Potency is reported as “inactive”. In the case of `O=C(Nc1ccc(S(=O)(=O)NCC2CCCO2)cc1)c1ccc(Cl)cc1[N+](=O)[O-]` (configuration not stated), the Potency is reported as inconclusive: 28.2 µM [inhibitor, single point]. In the case of `O=C(NCc1ccccc1)c1onc(CSc2ccc(F)c(F)c2)c1C(=O)NCc1ccccc1`, the Potency is reported as inconclusive: 12.6 µM [inhibitor, partial curve, poor fit]. With `CCCCNC(=O)c1c(CSc2ccc(Cl)cc2)noc1C(=O)NCCC` the Potency was inconclusive: 14.1 µM [inhibitor, single point]. With `CCOc1ccc(C(C)(C)C)cc1S(=O)(=O)N1CC(C)OC(C)C1` (configuration not stated) the Potency was inconclusive: 14.1 µM [inhibitor, single point]. `O=C(Nc1cc(C(F)(F)F)ccc1Cl)c1nc2ccccc2nc1N1CCCCC1` was tested, and the Potency was “inactive”. In the case of `COc1ccc(OC)c(NCc2nnc(-c3ccccc3)o2)c1`, the Potency is reported as “inactive”. `Cc1cc(C)n(-c2nc3ccccc3nc2N2CCC(C)CC2)n1` was tested, and the Potency was “inactive”. For `CCC1COC(c2cccn2Cc2ccccc2Cl)=N1` (configuration not stated), the Potency was inconclusive: 11.2 µM [inhibitor, partial curve, poor fit]. For `Cc1cc(C)cc(NC(=O)C(=O)NCC(c2cccnc2)N2CCc3ccccc3C2)c1` (configuration not stated), the Potency was “inactive”. With `CCC(C)NS(=O)(=O)c1ccc(S(=O)(=O)N(CCc2ccc(OC)c(OC)c2)Cc2cccs2)cc1` (configuration not stated) the Potency was inconclusive: 8.91 µM [inhibitor, partial curve, poor fit]. `O=[N+]([O-])c1cccc(N=Nc2ccc(O)cc2O)c1` was tested, and the Potency was inconclusive: 28.2 µM [inhibitor, single point]. `CC(NCC(O)COc1ccccc1)C1COc2ccccc2O1` (configuration not stated) was tested, and the Potency was inconclusive: 17.8 µM [inhibitor, partial curve, poor fit]. With `CC(C)(C=O)Cc1cc(C(C)(C)C)c(O)c(C(C)(C)C)c1` the Potency was active: 11.2 µM. For `Oc1c(C(c2cccs2)N2CCN(c3cccc(Cl)c3)CC2)sc2ncnn12` (configuration not stated), the Potency was inconclusive: 11.2 µM [inhibitor, partial curve, poor fit]. With `O=C(NCc1cccc(Cl)c1)c1ccc(CS(=O)Cc2ccccc2Cl)o1` (configuration not stated) the Potency was inconclusive: 31.6 µM [inhibitor, single point] and inconclusive: 15.8 µM [inhibitor, partial curve, poor fit]. For `CCc1ccc(NC(=O)C2CCN(S(=O)(=O)c3cccs3)CC2)cc1`, the Potency was inconclusive: 7.94 µM [inhibitor, partial curve, poor fit]. In the case of `Cc1ccc(-n2c(=O)c3c(c4cc(C)ccc4n3C)n(CC(=O)NCCC3=CCCCC3)c2=O)cc1`, the Potency is reported as “inactive”. `COC(=O)c1cc2oc(C)cc2n1Cc1cccc(Cl)c1` was tested, and the Potency was inconclusive: 10 µM [inhibitor, partial curve]. In the case of `Cc1cc(NC(=O)CSc2nc(-c3cccs3)cc(C(F)(F)F)n2)no1`, the Potency is reported as inconclusive: 1.26 µM [inhibitor, partial curve, poor fit]. `Cc1ccc(CN2CC(N3CCN(CC4CC4)CC3)CS2(=O)=O)cc1` (configuration not stated) was tested, and the Potency was “inactive”. For `C[C@@]12C(=O)Nc3cc(F)ccc3C(=O)N1[C@H]1c3ccccc3OC[C@@H]1[C@@H]2c1ccccc1`, the Potency was inconclusive: 28.2 µM [inhibitor, single point]. With `COc1cc(C(O)c2nc3ccccc3s2)cc(OC)c1OC` (configuration not stated) the Potency was “inactive”. In the case of `C[C@@H](NC(=O)c1nc[nH]c1C(=O)NC1CCN(C(=O)OC(C)(C)C)CC1)c1ccccc1`, the Potency is reported as inconclusive: 28.2 µM [inhibitor, single point]. With `COCCn1c(SCC(=O)N2CCCCC2)nc2cccnc21` the Potency was “inactive”. For `CC1(C)ON(C2CCCCC2)[C@H]2c3nc4ccccc4n3C[C@H]21`, the Potency was “inactive”. In the case of `CCOc1ccc(OCC)c(NC(=O)c2cnc3c(-c4ccccc4)c(C)nn3c2C)c1`, the Potency is reported as “inactive”. With `CCOC(=O)c1c(NC(=O)CSc2nc3ccccc3[nH]2)sc2c1CC(C)(C)NC2(C)C` the Potency was inconclusive: 10 µM [inhibitor, partial curve, poor fit]. In the case of `CCCn1c(C)nc2cc(Cl)c(N3CCN(c4nc(-c5ccc(C)cc5)cs4)CC3)cc21`, the Potency is reported as inconclusive: 20 µM [inhibitor, single point]. For `Cc1ccc(C(=S)N2CCCCCC2)cc1`, the Potency was inconclusive: 2.82 µM [inhibitor, partial curve, poor fit]. For `CCOc1cccc(N(C(=O)C2COc3ccccc3O2)C(C(=O)NC2CCCCC2)c2ccc(O)cc2)c1` (configuration not stated), the Potency was inconclusive: 2.82 µM [inhibitor, full curve, poor fit]. In the case of `C=CCn1c(NC(=O)c2ccccc2Cl)c(C#N)c2nc3ccccc3nc21`, the Potency is reported as inconclusive: 5.01 µM [inhibitor, partial curve]. In the case of `O=C(O)c1cccc(NC(=O)c2ccc(N3C(=O)c4ccc(C(=O)Nc5cccc(C(=O)O)c5)cc4C3=O)cc2)c1`, the Potency is reported as inconclusive: 28.2 µM [inhibitor, single point].
